Assay results published in article PMC4068158.
These are yes or no findings as the source states them, for the method shown. Binding seen in cells or lysates may run through a third protein. Some binding calls cover weakened binding; strength is not graded here. For some assays here: Tags and fused reporters may be left off the sequences shown.

Sequences of proteins named here, by UniProt entry; tags and fusion partners are left off. A change or cut given only in a name is not applied to a line headed by its entry. A line that says so, or that is headed by a name, gives the form on record, which may keep a tag or linker.
Flag-FAF1 E297A (Q9UNN5, form named): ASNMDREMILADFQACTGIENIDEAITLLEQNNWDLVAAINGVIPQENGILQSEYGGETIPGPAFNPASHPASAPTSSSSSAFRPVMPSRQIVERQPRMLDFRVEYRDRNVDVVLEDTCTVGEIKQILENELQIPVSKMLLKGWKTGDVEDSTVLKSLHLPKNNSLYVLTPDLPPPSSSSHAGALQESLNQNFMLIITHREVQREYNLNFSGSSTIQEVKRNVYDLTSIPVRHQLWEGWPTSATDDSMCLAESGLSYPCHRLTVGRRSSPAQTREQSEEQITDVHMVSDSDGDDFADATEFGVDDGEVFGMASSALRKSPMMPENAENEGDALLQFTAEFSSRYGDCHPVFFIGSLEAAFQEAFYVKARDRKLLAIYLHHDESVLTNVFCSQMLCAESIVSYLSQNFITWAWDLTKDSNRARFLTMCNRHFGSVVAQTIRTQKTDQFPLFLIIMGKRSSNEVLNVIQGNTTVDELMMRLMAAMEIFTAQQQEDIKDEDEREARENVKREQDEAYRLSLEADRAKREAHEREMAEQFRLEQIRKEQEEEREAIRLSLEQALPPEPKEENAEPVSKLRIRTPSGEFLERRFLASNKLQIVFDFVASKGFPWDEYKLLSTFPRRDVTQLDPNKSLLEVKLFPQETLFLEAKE
UniProt O95292: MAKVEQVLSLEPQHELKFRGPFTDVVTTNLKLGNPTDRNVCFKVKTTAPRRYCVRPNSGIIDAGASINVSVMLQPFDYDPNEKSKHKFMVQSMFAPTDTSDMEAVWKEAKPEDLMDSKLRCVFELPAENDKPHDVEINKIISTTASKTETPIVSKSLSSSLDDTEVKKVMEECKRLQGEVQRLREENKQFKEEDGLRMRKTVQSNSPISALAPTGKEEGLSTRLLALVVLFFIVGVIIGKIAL

What was measured:
[1] = biological target: T1, Flag-RAB3GAP1 F585A/F586A (human) (UniProt Q15042); assay: co-IP; anti-Flag M2 beads on lysates of U2OS cells expressing the Flag-tagged bait (transfected or tetracycline-induced); buffer A (50 mM HEPES/KOH pH 7.2, 5 mM Mg(OAc)2, 70 mM KOAc, 0.2% Triton X-100, 10% glycerol, 0.2 mM EDTA), 4°C, 2 hr; endogenous prey by immunoblot; cells untreated, treated with MG132 or with siRNA (FAF1, p97, ASNA1, luciferase) as indicated
T1 sequence: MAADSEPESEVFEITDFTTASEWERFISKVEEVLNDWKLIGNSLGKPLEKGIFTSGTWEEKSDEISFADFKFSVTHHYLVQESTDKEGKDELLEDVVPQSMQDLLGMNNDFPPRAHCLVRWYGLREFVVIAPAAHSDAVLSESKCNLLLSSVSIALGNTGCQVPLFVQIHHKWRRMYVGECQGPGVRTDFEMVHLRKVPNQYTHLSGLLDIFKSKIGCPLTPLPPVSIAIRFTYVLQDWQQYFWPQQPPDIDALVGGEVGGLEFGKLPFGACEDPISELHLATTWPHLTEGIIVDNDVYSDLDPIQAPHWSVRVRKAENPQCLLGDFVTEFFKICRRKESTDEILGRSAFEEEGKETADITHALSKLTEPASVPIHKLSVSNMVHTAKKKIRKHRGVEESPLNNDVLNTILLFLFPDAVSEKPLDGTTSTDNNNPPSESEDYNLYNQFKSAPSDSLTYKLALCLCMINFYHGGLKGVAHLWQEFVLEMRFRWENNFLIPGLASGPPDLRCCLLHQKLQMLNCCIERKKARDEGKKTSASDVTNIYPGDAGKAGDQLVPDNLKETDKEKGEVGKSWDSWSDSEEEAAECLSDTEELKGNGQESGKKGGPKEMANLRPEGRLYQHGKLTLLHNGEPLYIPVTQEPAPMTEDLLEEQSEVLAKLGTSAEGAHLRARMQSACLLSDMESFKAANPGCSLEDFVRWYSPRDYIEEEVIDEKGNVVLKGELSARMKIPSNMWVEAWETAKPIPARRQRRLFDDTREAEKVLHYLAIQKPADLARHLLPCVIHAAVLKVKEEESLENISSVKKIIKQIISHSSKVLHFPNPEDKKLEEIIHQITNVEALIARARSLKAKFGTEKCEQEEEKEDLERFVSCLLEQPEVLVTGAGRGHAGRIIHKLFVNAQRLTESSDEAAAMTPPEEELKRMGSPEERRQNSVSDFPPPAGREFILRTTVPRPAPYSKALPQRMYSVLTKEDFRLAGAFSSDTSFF

Flag-FAF1 E297A (human) = Flag-FAF1 E297A (human) (UniProt Q9UNN5); assay: as above

For “endogenous VAPB (human cells) (from UniProt O95292 1-243)”, which binding [1] is on record?
The binding was “no binding”.

And the binding (Flag-FAF1 E297A (human))?
The binding was “binds”.
